The structures appear in SMILES notation. Among all 310,000 compounds or so, about 14,000 (4.5%) showed an effect of 50% or more. Effects have a minus sign here. The list shows a part of the results.
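Note: peak tail current of the secondary pulse compared with the same well before compound.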

In the test the target is human ether-à-go-go-related gene (hERG) potassium channel (human, UniProt Q12809). The test can be described thus: primary screen, population patch clamp on CHO cells stably expressing hERG.
Sequence of human ether-à-go-go-related gene (hERG) potassium channel (Q12809 whole entry, looked up): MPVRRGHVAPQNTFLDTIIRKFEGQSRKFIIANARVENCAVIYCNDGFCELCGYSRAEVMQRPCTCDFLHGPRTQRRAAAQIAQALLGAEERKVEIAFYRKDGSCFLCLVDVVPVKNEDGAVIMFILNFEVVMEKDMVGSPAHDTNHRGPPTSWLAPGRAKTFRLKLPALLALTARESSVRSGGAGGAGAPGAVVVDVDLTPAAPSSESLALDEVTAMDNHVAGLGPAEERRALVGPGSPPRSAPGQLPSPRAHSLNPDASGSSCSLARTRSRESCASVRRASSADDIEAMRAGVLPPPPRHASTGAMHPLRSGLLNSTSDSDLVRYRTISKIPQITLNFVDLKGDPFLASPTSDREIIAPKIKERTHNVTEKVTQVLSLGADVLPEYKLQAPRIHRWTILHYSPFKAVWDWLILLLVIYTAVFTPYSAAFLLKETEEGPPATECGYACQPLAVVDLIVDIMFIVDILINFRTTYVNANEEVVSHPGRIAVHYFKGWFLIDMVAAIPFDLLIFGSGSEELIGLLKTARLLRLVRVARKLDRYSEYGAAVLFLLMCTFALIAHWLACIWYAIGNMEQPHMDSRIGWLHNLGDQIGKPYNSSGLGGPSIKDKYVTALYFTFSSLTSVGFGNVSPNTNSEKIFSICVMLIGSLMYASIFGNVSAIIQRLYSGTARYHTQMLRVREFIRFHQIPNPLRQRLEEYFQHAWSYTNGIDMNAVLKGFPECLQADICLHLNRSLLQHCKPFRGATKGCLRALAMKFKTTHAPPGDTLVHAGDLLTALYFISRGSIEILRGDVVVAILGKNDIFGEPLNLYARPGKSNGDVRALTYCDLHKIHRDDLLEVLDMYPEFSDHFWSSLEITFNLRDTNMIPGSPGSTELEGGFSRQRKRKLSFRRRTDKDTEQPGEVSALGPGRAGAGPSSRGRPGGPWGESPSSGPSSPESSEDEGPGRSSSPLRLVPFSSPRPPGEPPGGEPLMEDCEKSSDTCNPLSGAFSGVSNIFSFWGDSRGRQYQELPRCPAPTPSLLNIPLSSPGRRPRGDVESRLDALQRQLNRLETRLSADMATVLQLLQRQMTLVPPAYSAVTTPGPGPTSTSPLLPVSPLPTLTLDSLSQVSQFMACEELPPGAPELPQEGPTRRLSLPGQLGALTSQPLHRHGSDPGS
Regarding `C=C(C)C1CCC(C)=C1COC(=O)Nc1ccccc1` (stereo not shown), the “hERG current change (%, negative = inhibition) at 10uM” value is on record as -6.21%.

For `Cc1noc(/C=C/c2ccccc2F)c1S(=O)(=O)N1CCC(C(=O)N2CCN(C)CC2)CC1`, the “hERG current change (%, negative = inhibition) at 10uM” value is listed as -19.5%.

Take `NC(=O)COc1ccc(C(=O)/C=C2/C(=O)Nc3ccccc32)cc1`: the “hERG current change (%, negative = inhibition) at 10uM” value was 14.6%.

As for `N#CC(c1nc2ccccc2nc1N1CCOCC1)S(=O)(=O)c1ccccc1` (stereo not shown), the “hERG current change (%, negative = inhibition) at 10uM” value amounted to 17.9%.

For `CCOc1ccc(OCC)c(NC(=O)Nc2ccc3c(c2)N(C)C(=O)CS3)c1`, the “hERG current change (%, negative = inhibition) at 10uM” value is -14.7%.

With `O=C(NC1CCCCC1)C1CCN(C(=O)c2ccccc2Cl)CC1`, the “hERG current change (%, negative = inhibition) at 10uM” value was found to be 22.2%.

Consider `O=C(CCl)NC(Cc1ccccc1)c1ccccc1` (stereo not shown), for which the “hERG current change (%, negative = inhibition) at 10uM” value turned out to be 17.7%.

Take `Cc1cccc(C(=O)C2CCN(S(=O)(=O)c3ccc(C(=O)O)cc3)CC2)c1`: the “hERG current change (%, negative = inhibition) at 10uM” value is listed as -0.78%.

Turning to `O=C(NNC(=O)c1ccc(Br)cc1)c1ccncc1`, the “hERG current change (%, negative = inhibition) at 10uM” value came out at 14.6%.

As to `CCOc1ccc2c(c1)C(=NNC(=O)c1ccncc1)c1cc(OCC)ccc1-2`, the “hERG current change (%, negative = inhibition) at 10uM” value turned out to be 17.1%.

In the case of `COc1cc(OC)cc(C(=O)N[C@H](C(=O)OCC(=O)Nc2ccc(C)cc2C)C(C)C)c1`, the “hERG current change (%, negative = inhibition) at 10uM” value was -21.2%.

Turning to `CN(C)C(CNC(=O)c1cccc(NS(=O)(=O)c2ccc(Br)cc2)c1)c1ccco1` (stereo not shown), the “hERG current change (%, negative = inhibition) at 10uM” value was -28.8%.

On to `COC(=O)CCC(=O)OC1(C)C(=O)C=C2C=C(C3CC3)N(CCc3c[nH]c4ccccc34)C=C2C1=O` (stereo not shown), for which the “hERG current change (%, negative = inhibition) at 10uM” value is on record as 9.18%.

As to `CC(=O)Oc1ccc(C(=O)NC(C)CCc2ccccc2)cc1` (stereo not shown), the “hERG current change (%, negative = inhibition) at 10uM” value is reported as 9.89%.

On to `CC(=O)c1csc(COc2ccccc2)n1`, for which the “hERG current change (%, negative = inhibition) at 10uM” value was found to be 12.9%.

`Cc1ccc(C(=O)NCc2ccc3c(c2)OCO3)c(C)c1`: the “hERG current change (%, negative = inhibition) at 10uM” value amounted to 1.18%.

On to `COc1cccc(C2NC(=S)NC3=C2CCc2ccccc23)c1` (stereo not shown), for which the “hERG current change (%, negative = inhibition) at 10uM” value is -0.748%.

For the compound `CCC1=NC(c2ccc(OC)c(OC)c2)N(O)C1(C)C` (stereo not shown), the “hERG current change (%, negative = inhibition) at 10uM” value is listed as 17.8%.

`CN1CCN(C(=O)c2ccccc2Nc2ccc(SC(F)F)cc2)CC1.Cl`: the “hERG current change (%, negative = inhibition) at 10uM” value is -26%.

As to `CC(C)c1ccccc1OCC(=O)Nc1ccc2[nH]ncc2c1`, the “hERG current change (%, negative = inhibition) at 10uM” value was 5.26%.

For `NS(=O)(=O)c1ccc(CCNC(=O)c2ccc(=O)[nH]c2)cc1`, the “hERG current change (%, negative = inhibition) at 10uM” value is 24.2%.

On to `Cc1ccc(Cl)cc1NC(=O)CC1NC2CCCCC2NC1=O` (stereo not shown), for which the “hERG current change (%, negative = inhibition) at 10uM” value came out at 17.6%.

As for `CCN(CC)CCOCCOc1cc(C)c(Cl)c(C)c1`, the “hERG current change (%, negative = inhibition) at 10uM” value is -44.4%.

For the compound `Cn1c(=O)c2c(SCC(=O)NCC3CCCO3)nc(-c3ccccc3Cl)nc2n(C)c1=O` (stereo not shown), the “hERG current change (%, negative = inhibition) at 10uM” value was -35.2%.

As for `CCc1c(C)[nH]n(CCC#N)c1=O`, the “hERG current change (%, negative = inhibition) at 10uM” value is on record as -0.107%.

Turning to `CCOc1cc(/C=N/Nc2nc(N3CCCCC3)nc(N3CCCCC3)n2)ccc1OC(=O)c1ccco1`, the “hERG current change (%, negative = inhibition) at 10uM” value amounted to 19.8%.

`Cc1nc(N2CCCCC2)nc(N2CCCCC2)c1C=O`: the “hERG current change (%, negative = inhibition) at 10uM” value was determined as 5.95%.

For the compound `Cc1ccc(S(=O)(=O)N2CCN(C(=O)CCc3nc4ccccc4c(=O)[nH]3)CC2)c(C)c1`, the “hERG current change (%, negative = inhibition) at 10uM” value is given as -25.9%.

As to `O=C(C/C=N\OCc1c(Cl)cccc1Cl)Oc1ccc(Cl)cc1Cl`, the “hERG current change (%, negative = inhibition) at 10uM” value is on record as 4.03%.

For the compound `Cc1csc(NC(=O)C2CCCCN2S(=O)(=O)c2ccccc2)n1` (stereo not shown), the “hERG current change (%, negative = inhibition) at 10uM” value is 0.799%.

Regarding `COc1ccccc1OCC(O)Cn1nc(C)cc1C` (stereo not shown), the “hERG current change (%, negative = inhibition) at 10uM” value was 9.76%.

Regarding `CCOC(=O)c1cc(-c2ccc(/C=N\n3cnnc3)o2)ccc1Cl`, the “hERG current change (%, negative = inhibition) at 10uM” value was -37.3%.

In the case of `COc1ccc(C2c3ccc(O)cc3Oc3ncn(CCCO)c(=N)c32)cc1OC` (stereo not shown), the “hERG current change (%, negative = inhibition) at 10uM” value is -6.28%.

`CCOC(=O)C1CCCN(C(=O)Cn2nc(Cc3cccnc3)c3ccccc3c2=O)C1` (stereo not shown): the “hERG current change (%, negative = inhibition) at 10uM” value is recorded as -3.9%.

As to `O=C1CCC([N+](=O)[O-])C(c2ccc(F)c(Br)c2)N1` (stereo not shown), the “hERG current change (%, negative = inhibition) at 10uM” value is listed as -0.459%.

With `O=[N+]([O-])c1ccc(N/N=C2\CC3CC=CC23)c([N+](=O)[O-])c1` (stereo not shown), the “hERG current change (%, negative = inhibition) at 10uM” value is -29.3%.

For `CN1CCN(Cc2c(C(=O)N/N=C/c3cccc(Br)c3)nnn2-c2nonc2N)CC1`, the “hERG current change (%, negative = inhibition) at 10uM” value is recorded as -74.8%.

As for `Cc1cc2nnc(SCC(=O)N3CCOCC3)n2c2ccccc12`, the “hERG current change (%, negative = inhibition) at 10uM” value is 24.2%.

Consider `O=C(NN1C(=O)C2C3C=CC(C4CC34)C2C1=O)c1ccc(Cl)cc1` (stereo not shown), for which the “hERG current change (%, negative = inhibition) at 10uM” value is listed as 10.8%.

As to `CCOC(=O)C1CCCN(C(=O)c2ccc(Cl)cc2)C1` (stereo not shown), the “hERG current change (%, negative = inhibition) at 10uM” value worked out at 0.557%.

For `COc1cccc(/C=N/Nc2ccc(Cl)nn2)c1`, the “hERG current change (%, negative = inhibition) at 10uM” value amounted to 11.1%.

On to `Cc1ccc(CNC(=O)c2c(C)cc(=O)oc2C)cc1`, for which the “hERG current change (%, negative = inhibition) at 10uM” value is given as -14.6%.

`CN(c1ccccc1)c1nccc(=O)[nH]1`: the “hERG current change (%, negative = inhibition) at 10uM” value stood at 5.75%.

For `CC(/C=N/n1c(-c2n[nH]c3c2CCC3)n[nH]c1=S)=C\c1ccco1`, the “hERG current change (%, negative = inhibition) at 10uM” value was 4.9%.

`Cc1[nH]c2ccccc2c1C(=O)CSc1nc2ccccc2c(=O)n1-c1ccccc1F`: the “hERG current change (%, negative = inhibition) at 10uM” value is on record as 15.3%.

As to `Nc1nnnn1NCc1cccc(OCc2ccccc2)c1`, the “hERG current change (%, negative = inhibition) at 10uM” value is recorded as 0.809%.

On to `O=C(NCCc1ccccc1)c1cnc2ccccc2n1`, for which the “hERG current change (%, negative = inhibition) at 10uM” value was -9.16%.

For the compound `O=C(COc1ccccc1Cl)OCC(=O)N1CCN(S(=O)(=O)c2ccccc2)CC1`, the “hERG current change (%, negative = inhibition) at 10uM” value is -12.8%.

For the compound `Cc1ccc2c(CN3CCN(CCO)CC3)cc(=O)oc2c1C`, the “hERG current change (%, negative = inhibition) at 10uM” value is -15.5%.

Regarding `CCN(CC)C(C)C(=O)Nc1c2c(cc3c1CCC3)CCC2.Cl` (stereo not shown), the “hERG current change (%, negative = inhibition) at 10uM” value is -2.41%.

Turning to `O=C(c1cc(-c2ccc(Br)cc2)nc2ccccc12)N1CCN(c2ccccc2O)CC1`, the “hERG current change (%, negative = inhibition) at 10uM” value came out at 1.51%.

As for `CCOC(=O)COc1c(/C=N\OC)cc(Cl)cc1OC`, the “hERG current change (%, negative = inhibition) at 10uM” value is 0.872%.

For the compound `COc1ccccc1C(O)P(=O)(OC1CCCCC1)OC1CCCCC1` (stereo not shown), the “hERG current change (%, negative = inhibition) at 10uM” value came out at 8.64%.

As for `COC(=O)c1ccc(C(=O)NC2CC(C)(C)Cc3c2cnn3-c2ccc(F)cc2)nc1` (stereo not shown), the “hERG current change (%, negative = inhibition) at 10uM” value is listed as -23.4%.

As for `Cc1cc(N2CCCC2)ccc1NC(=O)COc1cccc(C(F)(F)F)c1`, the “hERG current change (%, negative = inhibition) at 10uM” value turned out to be 24.1%.

Turning to `Cc1nc2nc(-c3ccc(F)cc3)cn2nc1C`, the “hERG current change (%, negative = inhibition) at 10uM” value was 7.58%.

For the compound `CCOC(=O)Cc1nnc(NC(=O)C23CC4CC(CC(C4)C2)C3)s1`, the “hERG current change (%, negative = inhibition) at 10uM” value is on record as 8.5%.

As for `CCOc1cccc(C(=O)Nc2ccccc2C(=O)N2CCN(C)CC2)c1`, the “hERG current change (%, negative = inhibition) at 10uM” value is listed as -4.1%.

Values taken from paper PMC4336329 (PLoS ONE, 2015).
